Test results reported in PubChem BioAssay AID1476 (National Center for Advancing Translational Sciences (NCATS), 2009).
Out of some 200,000 compounds screened, about 4,500 (2.2%) were called active. Inconclusive means that the source gave no clear call. Such entries were picked first, then a sample of the others. The call rests on the fitted dose curve; in most records, active means well fitted inhibition curve with a large enough effect; inconclusive means small, poorly fitted or top-dose-only effect, or effect the other way; inactive means flat fitted curve, though single readings scatter. Potencies beside an inconclusive call are fits to weak or partial responses and may not hold up.

target: Cruzipain (Trypanosoma cruzi) (UniProt P25779); experiment: qHTS Assay for Promiscuous and Specific Inhibitors of Cruzain (without detergent); details: purified cruzain, Z-FR-AMC fluorescence, no detergent; further: nearly all actives have a fitted effect of over 40% in size;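 on max response, negative = inhibition: plate controls were enzyme without inhibitor for no effect and buffer without enzyme for full effect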
UniProt P25779, sequence (P25779 whole entry, looked up): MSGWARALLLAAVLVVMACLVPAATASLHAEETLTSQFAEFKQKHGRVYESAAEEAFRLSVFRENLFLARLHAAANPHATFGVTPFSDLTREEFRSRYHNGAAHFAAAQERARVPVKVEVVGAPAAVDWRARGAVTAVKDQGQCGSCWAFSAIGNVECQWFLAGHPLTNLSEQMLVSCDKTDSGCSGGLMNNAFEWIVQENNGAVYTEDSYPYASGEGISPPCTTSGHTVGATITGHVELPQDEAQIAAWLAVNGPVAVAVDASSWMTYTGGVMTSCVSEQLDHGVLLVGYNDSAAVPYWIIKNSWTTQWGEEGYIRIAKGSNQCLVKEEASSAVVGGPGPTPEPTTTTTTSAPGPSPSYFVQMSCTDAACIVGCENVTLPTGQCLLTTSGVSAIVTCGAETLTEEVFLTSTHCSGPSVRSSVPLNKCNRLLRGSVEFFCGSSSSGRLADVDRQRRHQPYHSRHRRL
Procedure, shortened: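 Purified cruzain at 1.5 nM, pre-incubated 15 min with compound at room temperature in 100 mM sodium acetate pH 5.5, 5 mM DTT, 0.00005% Triton X-100. Reaction started with 2 uM Z-FR-AMC; AMC fluorescence increase over 60 s gives rate.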
Potency means the concentration at half of the fitted maximal effect; tags describe the fitted curve by direction and shape.

| Structure (SMILES) | max response, negative = inhibition | Potency |
| --- | --- | --- |
| NCC[C@H](O)C(=O)N[C@H]1C[C@@H](N)[C@@H](O[C@H]2O[C@@H](CN)[C@@H](O)[C@@H](O)[C@@H]2O)[C@@H](O)[C@@H]1O[C@H]1O[C@@H](CO)[C@@H](O)[C@@H](N)[C@@H]1O | inactive: -0.093% |  |
| CCn1c2ccccc2c2cc(NC(=O)c3ccccc3[N+](=O)[O-])ccc21 |  | inconclusive: 39.8 µM [inhibitor, single point] |
| Cc1c(C(=O)Nc2ccccc2Br)oc2ccc(S(=O)(=O)N3CCCCCC3)cc12 | inactive: 9.44% |  |
| Cc1ccc(-c2cn3cccnc3n2)cc1NC(=O)C(C)(C)Oc1ccc(Cl)cc1 | inactive: 7.2% |  |
| N#Cc1cccc(-c2cc(NCc3ccccc3)ncn2)c1 | inactive: 2.68% |  |
| COc1ccc(-n2c(Cc3cccn3C)nnc2SCC(=O)Nc2cccc(NC(C)=O)c2)cc1 |  | inconclusive: 39.8 µM [activator, single point] |
| C=CCn1c(SCC(=O)Nc2sccc2C(N)=O)nc2ccc(Cl)cc2c1=O |  | inconclusive: 39.8 µM [inhibitor, single point] |
| COc1ccc2nc(NC(=O)Cc3ccc(OC)c(S(=O)(=O)N4CCOCC4)c3)sc2c1 |  | inconclusive: 39.8 µM [activator, single point] |
| COc1ccccc1C1C2=C(N=C3SCC(=O)N31)c1ccccc1CC2 (centres undefined) |  | inconclusive: 39.8 µM [inhibitor, single point] |
| O=C(c1cc2sccc2n1Cc1ccccc1)N1CCCc2ccccc21 |  | active: 20 µM |
| NC(=O)C1CCN(CCC(=O)Nc2ccc(Br)cc2)CC1 |  | inconclusive: 39.8 µM [activator, single point] |
| COc1cc2c(cc1OC)C1=NC(=O)CN1C(SCc1ccccc1)=N2 |  | inconclusive: 39.8 µM [activator, single point] |
| O=C1NC(=O)/C(=C\c2ccc(Sc3ccc(Cl)cc3)o2)N1 |  | inconclusive: 31.6 µM [inhibitor, single point] |
| CCn1c2ccccc2c2cc(CN3CCN(Cc4ccc(Br)cc4)CC3)ccc21 |  | inconclusive: 39.8 µM [inhibitor, single point] |
| COC(=O)c1ccc([C@@H]2Nc3c(OC)ccc(C)c3[C@@H]3C=CC[C@@H]32)cc1 |  | inconclusive: 39.8 µM [activator, single point] |
| COc1ccc(C(=O)Nc2cccc(C(=O)OCc3cc(=O)n4nc(C5CC5)sc4n3)c2)cc1 | inactive: -4.43% |  |
| CCN(CC)CCCNc1nc2ccccc2[nH]1 |  | inconclusive: 31.6 µM [inhibitor, single point] |
| Cc1cc(C)nc(N(C#N)CC(=O)Nc2ccccc2)n1 | inactive: 5.89% |  |
| N#CC1=C(N)C(C#N)(C#N)C(c2cccnc2)C2CCCC=C12 (centres undefined) |  | inconclusive: 31.6 µM [activator, single point] |
| Cc1cccc(Nc2ncnc3onc(-c4ccc(Cl)cc4)c23)c1C |  | inconclusive: 39.8 µM [inhibitor, single point] |

| Structure (SMILES) | max response, negative = inhibition | Potency |
| --- | --- | --- |
| Cc1ccc(-c2nc3ccccc3[nH]2)s1 |  | inconclusive: 0.794 µM [inhibitor, full curve] |
| COc1cccc(-c2ccc(C#N)c(SCC(=O)NCCc3ccc(Cl)cc3)n2)c1 |  | inconclusive: 31.6 µM [inhibitor, single point] |
| Cc1cc(C)nc(NS(=O)(=O)c2ccc(NC(=O)c3cc(-c4ccccc4)nc4ccccc34)cc2)n1 |  | inconclusive: 25.1 µM [activator, partial curve] |
| COc1cccc(C(=O)N(Cc2nc(-c3cccc(C)c3)no2)C(C)C)c1OC |  | inconclusive: 31.6 µM [activator, single point] |
| COc1ccc(C(=O)N2CCC3(CCN(Cc4nccs4)CC3)CC2)cc1 | inactive: -1.57% |  |
| COc1ccc(NC(=S)NC(NC(=O)/C=C/c2ccccc2)C(Cl)(Cl)Cl)cc1 (centres undefined) |  | inconclusive: 39.8 µM [inhibitor, single point] |
| C/C(=N\Nc1nnc(-c2ccccc2)c(-c2ccccc2)n1)c1cccc([N+](=O)[O-])c1 |  | inconclusive: 20 µM [activator, partial curve] |
| COc1ccc(-n2c(N)c(C(=O)NCc3ccco3)c3nc4ccccc4nc32)c(OC)c1 |  | inconclusive: 25.1 µM [activator, single point] |
| O=C(C1=NN(c2ccccc2)C2C(=O)N(c3ccccc3Cl)C(=O)C12)c1ccccc1 (centres undefined) |  | inconclusive: 31.6 µM [inhibitor, single point] |
| C[C@@]1(C(NC(=O)Cc2ccccc2)c2ccc(-c3ccccc3)cc2)C[C@H]1C1CCCCC1 (some centres undefined) | inactive: 2.63% |  |
| Cc1cccc(-c2cc3nc4c(c(N5CCCC(O)C5)n3n2)CCC4)c1 (centres undefined) |  | inconclusive: 39.8 µM [activator, single point] |
| N#CC(C#N)=C1C=CC=CN1/C(=C\c1ccccc1)C(=O)c1cccs1 |  | inconclusive: 31.6 µM [inhibitor, single point] |
| CCOc1ccc(NC(=O)CN(C)CC(=O)NC2CCCc3ccccc32)cc1OCC (centres undefined) |  | inconclusive: 25.1 µM [activator, single point] |
| Cc1sc(NC(=O)CSc2nnc(COc3ccc(Cl)cc3)n2C)c(C#N)c1C |  | active: 25.1 µM |
| CCC(C)n1c(=O)c2sccc2n2c(CCCC(=O)N3CCN(c4ccccc4)CC3)nnc12 (centres undefined) |  | inconclusive: 39.8 µM [activator, single point] |
| COc1ccc(CCN2C(=O)CC(C(N)=O)SC2=Nc2ccccc2)cc1OC (centres undefined) |  | inconclusive: 31.6 µM [activator, single point] |
| O=C(Cn1c(=O)n(Cc2nc(-c3ccccc3)no2)c(=O)c2cc3c(cc21)OCO3)Nc1ccccc1 |  | inconclusive: 39.8 µM [inhibitor, single point] |
| O=C(COC(=O)c1cc(-c2cccs2)nc2ccccc12)c1ccc(F)cc1 |  | inconclusive: 39.8 µM [inhibitor, single point] |
| CCOc1cc(C2c3c(-c4cc(C)ccc4O)n[nH]c3C(=O)N2CCCOC(C)C)ccc1O (centres undefined) | inactive: -4.06% |  |
